The chains are these.
B1: LINE1-mini (parent)
chain: GGCAGAGCUCAACACAGCGUGGCAAAGUGGCUGUGGCUAGACUGCC

The source gives no read counts; variants with many changes may rest on few reads.

The data set covers variants of B1. Put plainly: self-cleavage, relative activity (ratio to wild type); higher = more cleavage; in vitro, sequencing; the parent is a self-cleaving ribozyme.
Take A12U C31U U32A A41G U43A C46G: the self-cleavage was found to be 0.02.
As for A12U C13A C45U, the self-cleavage was found to be 0.14.
Take C13A C18A U28A G29C: the self-cleavage amounted to 0.17.
On to A12U G17A G19U A39U, for which the self-cleavage was 0.04.
As for A12G U20G G33U, the self-cleavage is 0.05.
Consider C13A A14U A24U, for which the self-cleavage turned out to be 0.06.
As for A12U C31A U32G U43C, the self-cleavage came to 0.06.
For A12U C15A A16U G19C, the self-cleavage was determined as 0.04.
On to A12U A24U C42U, for which the self-cleavage came out at 0.15.
With A12U C13G A39U, the self-cleavage stood at 0.39.
A12G U28A C42U C45A: the self-cleavage was determined as 0.
In the case of A12U U20G U28C G33A, the self-cleavage was 0.02.
As for A12U G36A U38A U43A, the self-cleavage was 0.01.
As for A12U G21U G29A U32G C37U, the self-cleavage is 0.04.
Consider A12U U20A G27A G30U C31A C37U, for which the self-cleavage was 0.01.
In the case of A12U G19U G36A G44U, the self-cleavage was found to be 0.01.
For C13A A14U C45U, the self-cleavage amounted to 0.22.
A12U U20A C46U: the self-cleavage came out at 0.12.
Take A12U A39G C42U: the self-cleavage was determined as 0.01.
As to A12U G33A C42U, the self-cleavage turned out to be 0.03.
The figure for C13A A16C C23U G36U A39U U43A is 0; for A12U G40A C42G it is 0.04.
Turning to C13A A16G G17A G19A, the self-cleavage amounted to 0.03.
On to A12U G17A G22A G33U, for which the self-cleavage was 0.01.
On to A12U C13U A14G C15U, for which the self-cleavage was 0.02.
In the case of C13A A16C G21C G29C, the self-cleavage is 0.05.
A12U C18A C23G A26C: the self-cleavage amounted to 0.16.
In the case of C13A C15A G17A G35U, the self-cleavage turned out to be 0.01.
With C13A C15A G17A G36U, the self-cleavage stood at 0.01.
In the case of A12U A26U G44C, the self-cleavage is 0.03.
For the variant C13A C23A A25U A26C, the self-cleavage turned out to be 0.09.
The result for A12U C13U C18A A26G U43C reads 0.02; that for C13A G17A A24G C31G C45U, 0; that for A12U C15A C31G, 0.02.
Consider C13A A14U G22A, for which the self-cleavage amounted to 0.07.
As to A12U G29A U38C, the self-cleavage was found to be 0.66.
The result for C13A C18U A26U C42U reads 0.05; that for A12U C15U G36A G40A, 0.01.
On to C13A C15U G29U, for which the self-cleavage was determined as 0.18.
For the variant C13A C18G G40U, the self-cleavage turned out to be 0.05.
For A12U G17A C42A, the self-cleavage worked out at 0.01.
A12U A14U U32G U43A G44A: the self-cleavage was 0.
Take A12U C13A G33C C42U: the self-cleavage stood at 0.02.
As for A12G U28C C31A, the self-cleavage came out at 0.01.
For the variant C13A A14U C37U, the self-cleavage came out at 0.07.
With C13A C18A C23A, the self-cleavage was 0.02.
For A12U A14C G29C, the self-cleavage came to 0.03.
For the variant A12U C15U A24U, the self-cleavage was determined as 0.03.
As for A12U U20C G22C G27C U28G U38C C46U, the self-cleavage was 0.
Regarding A12U G19A G22C U43A, the self-cleavage worked out at 0.01.
The figure for A12U C13U A39C G44U is 0.09; for A12U A24G U28A G44U it is 0.02; for C13A A14U U34C it is 0.06.
Take C13A C15G U28G: the self-cleavage was found to be 0.11.
On to C13A A25G A41G, for which the self-cleavage worked out at 0.03.
The result for A12U U20G G29A G44C reads 0.09; that for A12U G30A U43A, 0.03.
With A12U A24G G35A A41U, the self-cleavage came out at 0.2.
The figure for C13A A16U G22U G40A is 0.08; for A12U C15U C18G U20A G35C it is 0.02; for A12U G17C G19C G33U it is 0.03.
The result for A12U U34G A41U reads 0.04.
As for A12U C37U C45U, the self-cleavage was 0.01.
Turning to A12U C13A G19U G29A G35U A41U, the self-cleavage is 0.29.
With A12U C23G U43G, the self-cleavage came out at 0.01.
Consider A12U G33U G36U, for which the self-cleavage is 0.02.
Consider C13A C23A G40C C42U U43A, for which the self-cleavage worked out at 0.04.
The figure for C13A A16C G29U is 0.4.
As for A12U U20G A26G, the self-cleavage is 0.05.
Take A12U U20G A26U: the self-cleavage came to 0.26.
C13A A14G G27A: the self-cleavage came to 0.06.
A12U U20G A24G C46G: the self-cleavage worked out at 0.13.
Regarding C13A C15U C23G, the self-cleavage was 0.04.
With C13A C18U A24U C42A, the self-cleavage stood at 0.1.
The result for C13A A16C A26G G33C reads 0.03; that for A12U A14U A25U C42A, 0.01.
As to C13A A24C G35C, the self-cleavage is 0.04.
With A12U G21C G40U U43C C46U, the self-cleavage stood at 0.03.
With A12U C13U A14U C42G, the self-cleavage turned out to be 0.09.
For the variant A12U C13G C46G, the self-cleavage was 0.04.
For the variant C13A A25U G29A, the self-cleavage came to 0.15.
The figure for A12U C13A C42A is 0.07; for C13A C18G U34A C45G it is 0.01.
In the case of A12U C13G A41C, the self-cleavage is 0.08.
For the variant A12U G19C A24C A26U G30A, the self-cleavage was 0.02.
The result for C13A A24C C42A reads 0.04; that for A12U A24G G36A U38G, 0; that for C13A C23G G30U G33A C37U U38G U43C, 0.02.
The result for A12U C37U G40C reads 0.03; that for A12U C23A G35U, 0.14; that for C13A C18U G27A U43A, 0.07.
Take A12U A14G G17C A24U: the self-cleavage worked out at 0.22.
Take A12U A25G G44C: the self-cleavage is 0.06.
On to A12U A25U U34G, for which the self-cleavage worked out at 0.02.
With A12U A24G A41C, the self-cleavage is 0.04.
For the variant A12U C23A U28A, the self-cleavage came out at 0.07.
With A12U U20A G22A, the self-cleavage was 0.24.
As for A12U A24C G29U, the self-cleavage was determined as 0.22.
Regarding A12U A14C G17C C18U C23A G33C, the self-cleavage stood at 0.01.
For A12U G17U C23G, the self-cleavage was 0.07.
Turning to A12U A25U U38A, the self-cleavage was 0.03.
The figure for A12U A24C G36U C45A is 0.02; for A12G U28A A39U C46U it is 0.03.
The result for A12U C18A G33U G35A U38C reads 0.03; that for C13A C18G G33A U34C, 0.04; that for C13A C18A G19C G22U A26U G27U, 0.03.
For A12U U20G C23G, the self-cleavage turned out to be 0.06.
For the variant C13A C23U C31A U38A, the self-cleavage was found to be 0.04.
Consider C13A A14C G21C G36U G40U, for which the self-cleavage amounted to 0.22.
On to A12U A26C G44C, for which the self-cleavage is 0.13.
With A12U A26C C31G G44A, the self-cleavage amounted to 0.02.
Take C13A C37A C45U: the self-cleavage came out at 0.08.
The figure for A12U A16U A26G G27A G33A is 0.03; for A12U C23U U28G G33A it is 0.1.
The result for C13A C18G A26C C31A U32C A41U U43C reads 0.01.
Regarding A12U C42U C46U, the self-cleavage came out at 0.04.
As for C13A C15U U20C G21C U32A, the self-cleavage stood at 0.02.
Take C13A C18G A39C G44A: the self-cleavage came out at 0.08.
For C13A C42U C46U, the self-cleavage was determined as 0.06.
Consider C13A A14C A16C, for which the self-cleavage was found to be 0.07.
On to A12U C13U U28A, for which the self-cleavage worked out at 0.05.
In the case of C13A A16U A24C G33C U34G, the self-cleavage worked out at 0.05.
The result for A12U U28G U32G A41C reads 0.02.
A12U G35C G36A: the self-cleavage was 0.07.
Consider A12U C13G C23G, for which the self-cleavage came out at 0.58.
Regarding C13A C23U U32C G44A, the self-cleavage was 0.03.
For the variant A12G U28G C37A G40A, the self-cleavage stood at 0.2.
Turning to A12U A24U G27A G40U C45G, the self-cleavage is 0.04.
Regarding A12U G22C G33U, the self-cleavage was found to be 0.02.
The figure for A12U C15A U20A G29C U34C G36A is 0; for A12U G17U C31A it is 0.08; for C13A C15A G21C C42A it is 0.04.
In the case of C13A C15A A25C G29U G30A, the self-cleavage came out at 0.02.
C13A C31U C37A: the self-cleavage came to 0.04.
The result for C13A C15A G30U U32C G44A reads 0.07; that for A12U C13U G35U, 0.19.
Take A12U G21U G29C: the self-cleavage worked out at 0.23.
As to A12G U28A G33C G36U C46G, the self-cleavage was found to be 0.02.
As to C13A G17A A25U C31U G36U G40U, the self-cleavage came to 0.04.
On to A12U C15A U20A G22A, for which the self-cleavage was 0.06.
As for A12U C23A A24G A25C A26U U32C, the self-cleavage worked out at 0.02.
The result for C13A A25C G27A G30C reads 0.14; that for A12U G17U A26U G36U, 0.05.
For C13A A14U G17A G19C G21C G36U, the self-cleavage turned out to be 0.01.
As for A12U C15A G22C G27C U34C G36A C37A, the self-cleavage came to 0.03.
Take A12G U28G A41C C42U U43A C45G: the self-cleavage came to 0.02.
On to C13A A16G G21A C23A C31A, for which the self-cleavage was 0.04.
A12U G22A A24G: the self-cleavage turned out to be 0.04.
With C13A C18A G27C G36A, the self-cleavage came out at 0.05.
Consider C13A A25C C31G, for which the self-cleavage was determined as 0.04.
On to C13A A14G G17U C37G U38A C46U, for which the self-cleavage is 0.01.
Turning to A12U G17U A24C A39C U43C, the self-cleavage came out at 0.02.
C13A C23U C45G: the self-cleavage turned out to be 0.03.
Regarding A12U G36A G40U G44C, the self-cleavage stood at 0.03.
With C13A A16U G19A C31U, the self-cleavage was 0.
The figure for A12U G35A G36A is 0.1; for A12U C15U A16U G19U C42G it is 0.15.
For A12U A25C U38G C46A, the self-cleavage stood at 0.01.
In the case of A12U C13U G22A A25G G29C G36A, the self-cleavage worked out at 0.
As to C13A C31G U43A, the self-cleavage is 0.19.
For A12U G21A A25G U34A, the self-cleavage came out at 0.01.
The figure for A12U C13G G35U is 0.68.
Regarding A12U G30C A39U, the self-cleavage was determined as 0.17.
Consider C13A A26C G27U A39G, for which the self-cleavage amounted to 0.1.
With C13A A24C U28G G29U G36U G40C, the self-cleavage worked out at 0.36.
Take C13A C23G G36C: the self-cleavage worked out at 0.02.
As to C13A A26U G35A C45U, the self-cleavage amounted to 0.01.

These data come from the RNAGym collection of RNA variant scans (doi:10.7554/elife.90254).
